From PubChem BioAssay AID1460 (National Center for Advancing Translational Sciences (NCATS), 2008)
In all, about 270,000 compounds went through this assay and about 5,800 (2.1%) were called active. The shares of active, inactive and inconclusive entries below differ from those in the screen. The call rests on the fitted dose curve; in most records, active means well fitted inhibition curve with a large enough effect; inconclusive means small, poorly fitted or top-dose-only effect; inactive means flat fitted curve, though single readings scatter. Where the call is inconclusive, the potency comes from a doubtful curve fit.
Further: nearly all actives have a fitted effect of over 55% in size.
On the % scale 0 is the no-effect control and ±100 the full control effect; potency means the concentration at half of the fitted maximal effect; tags describe the fitted curve by direction and shape.

What follows are compounds tested against Microtubule-associated protein tau (Homo sapiens) (UniProt P10636) (assay: qHTS for Inhibitors of Tau Fibril Formation, Thioflavin T Binding). Conditions: recombinant tau K18 P301L (four-repeat tau fragment), heparin-induced fibrillization, ThT fluorescence; series mostly up to 57.4 µM; activity, negative = inhibition: at the top concentration.
Sequence of UniProt P10636 (P10636 whole entry, looked up, the tested form may be a part): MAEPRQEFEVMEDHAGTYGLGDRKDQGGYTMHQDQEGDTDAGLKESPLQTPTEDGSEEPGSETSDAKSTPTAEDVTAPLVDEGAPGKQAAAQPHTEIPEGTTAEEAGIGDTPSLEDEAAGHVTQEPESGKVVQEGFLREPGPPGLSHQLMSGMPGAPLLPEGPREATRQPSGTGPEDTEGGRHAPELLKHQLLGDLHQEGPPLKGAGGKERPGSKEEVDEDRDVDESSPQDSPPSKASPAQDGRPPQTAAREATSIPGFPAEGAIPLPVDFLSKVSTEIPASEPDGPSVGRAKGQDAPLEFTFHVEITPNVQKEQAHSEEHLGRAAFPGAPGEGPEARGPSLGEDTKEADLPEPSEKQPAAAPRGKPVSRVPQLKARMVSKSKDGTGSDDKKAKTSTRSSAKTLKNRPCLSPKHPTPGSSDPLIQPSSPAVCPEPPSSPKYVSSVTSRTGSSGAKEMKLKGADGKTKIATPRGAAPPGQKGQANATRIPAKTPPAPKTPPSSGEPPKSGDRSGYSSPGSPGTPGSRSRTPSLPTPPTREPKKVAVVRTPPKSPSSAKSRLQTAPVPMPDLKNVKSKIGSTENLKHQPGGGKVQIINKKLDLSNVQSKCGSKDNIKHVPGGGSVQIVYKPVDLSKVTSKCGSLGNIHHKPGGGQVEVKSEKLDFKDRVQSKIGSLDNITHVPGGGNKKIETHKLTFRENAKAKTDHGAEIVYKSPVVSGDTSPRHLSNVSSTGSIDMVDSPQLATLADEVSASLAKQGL
How it was run: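 K18 P301L tau (15 uM + 0.24 uM Alexa 594-tagged), heparin 20 uM, NaOAc pH 7, 6 h 37 C; ThT 30 uM, 1 h RT, ex 450/em 510 nm.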
`Cc1ccc(S(=O)(=O)NCCc2csc(-c3cccc(F)c3)n2)cc1` was tested, and the Potency was inconclusive: 39.8 µM [inhibitor, single point].
With `Cc1cccc(COc2ccccc2/C=N/Nc2ccc([N+](=O)[O-])cc2)c1` the Potency was active: 3.16 µM.
`Cc1ccc(Nc2ccc(N3CCN(C(=O)c4ccc([N+](=O)[O-])cc4)CC3)nn2)cc1` was tested, and the Potency was inconclusive: 7.08 µM [inhibitor, partial curve].
With `Cc1cc(C(c2nnnn2Cc2ccccc2)N2CCOCC2)c(C)n1-c1ccc2c(c1)OCO2` (centres undefined) the Potency was inconclusive: 25.1 µM [inhibitor, partial curve].
For `Cc1cccn2c(=O)c3cc(C(=O)Nc4ccc(Cl)c(Cl)c4)sc3nc12`, the “activity, negative = inhibition” value was inactive: -5.88%.
For `COC(=O)c1ccccc1NC(=O)N1CCN(c2ccc(OC)cc2)CC1`, the Potency was inconclusive: 7.08 µM [inhibitor, partial curve].
For `C/C(N)=C(/C#N)C(=O)CSc1nnc(COc2cc(C)ccc2C)o1`, the Potency was inconclusive: 20 µM [inhibitor, partial curve].
With `CN(C)c1ccc(N=Nc2cccc3ccoc23)cc1` the Potency was active: 1.41 µM.
With `COc1ccc(O)c(-c2cc(-c3ccccc3[N+](=O)[O-])[nH]n2)c1` the Potency was inconclusive: 14.1 µM [inhibitor, partial curve].
`O=C(CN1CCCCC1)Nc1nnc(-c2ccc([N+](=O)[O-])cc2)s1` was tested, and the Potency was active: 12.6 µM.
For `COc1ccc(C(=O)NCCn2cc(SCC(=O)Nc3ccc4c(c3)OCCO4)c3ccccc32)cc1OC`, the Potency was inconclusive: 4.47 µM [inhibitor, full curve].
In the case of `CCCc1ccc(Oc2cn[nH]c2-c2ccc(O)cc2O)cc1`, the Potency is reported as inconclusive: 31.6 µM [inhibitor, single point].
With `CC1(C)Cc2c(sc(NC(=O)c3ccco3)c2C(=O)O)CO1` the Potency was inconclusive: 10 µM [inhibitor, partial curve].
For `O=[N+]([O-])c1ccc(NC(=S)NCC(c2cccnc2)N2CCOCC2)cc1` (centres undefined), the Potency was inconclusive: 15.8 µM [inhibitor, partial curve, poor fit].
In the case of `CCOC(=O)COc1ccc(C)cc1C(=O)c1ccn2nc(-c3ccc(F)cc3)cc2n1`, the “activity, negative = inhibition” value is reported as inactive: -1.94%.
`O=C(CSc1nc2ccccc2c2nc3ccccc3n12)NCc1ccco1` was tested, and the Potency was inconclusive: 14.1 µM [inhibitor, partial curve].
`Cc1c(C(=O)NC(C)c2ccccc2)sc2nc3n(c(=O)c12)CCCC3` (centres undefined) was tested, and the Potency was inconclusive: 44.7 µM [inhibitor, single point].
In the case of `COc1cccc(C(=O)Nc2cccc(C(=O)OCc3cc(=O)n4c(C)csc4n3)c2)c1`, the “activity, negative = inhibition” value is reported as inactive: -6.57%.
For `Cn1c(SCC(=O)Nc2nc3ccccc3s2)ncc(C(=O)Nc2ccc(F)cc2)c1=O`, the Potency was inconclusive: 11.2 µM [inhibitor, partial curve].
In the case of `Cc1ccc(C(=O)C(C)CN2CCCCC2)cc1` (centres undefined), the “activity, negative = inhibition” value is reported as inactive: 2.29%.
In the case of `Cc1cccc(C2=NN(c3ccccc3)[C@H](CO)[C@H]2c2ccccc2)c1`, the Potency is reported as inconclusive: 56.2 µM [inhibitor, single point].
With `COc1cc(C(=O)c2c(C)c(CCC#N)n3ccccc23)cc(OC)c1OC` the Potency was inconclusive: 28.2 µM [inhibitor, single point].
For `COc1ccc(N2C(=O)CC(NNc3nc4ccccc4s3)C2=O)cc1` (centres undefined), the Potency was inconclusive: 15.8 µM [inhibitor, partial curve].
`O=C(c1ccco1)N1CCN(c2ccc(Cl)cc2)CC1` was tested, and the Potency was inconclusive: 28.2 µM [inhibitor, single point].
In the case of `CN(C)c1ccc(NC(=O)CSC2=Nc3ccccc3C3=NC(CCC(=O)NCc4cccs4)C(=O)N23)cc1` (centres undefined), the Potency is reported as inconclusive: 17.8 µM [inhibitor, single point].
For `COc1ccc(C(=O)Nc2nc(-c3ccc(S(=O)(=O)N4CCOCC4)cc3)cs2)cc1`, the “activity, negative = inhibition” value was inactive: -6.13%.
For `Cc1ccc2c(=O)c(C(=O)c3cccc(Cl)c3)cn(CC(=O)Nc3ccccc3C(F)(F)F)c2n1`, the Potency was inconclusive: 5.01 µM [inhibitor, partial curve].
With `O=c1c2ccccc2nc(COc2ccccc2)n1/N=C/c1ccco1` the Potency was inconclusive: 28.2 µM [inhibitor, partial curve].
`CCCC1=Nc2cc(C(=O)N3CCC(C)CC3)ccc2Sc2ccc(C)cc21` was tested, and the Potency was inconclusive: 5.01 µM [inhibitor, single point].
For `O=C(Nc1ccccn1)C1(c2cccs2)CCOCC1`, the Potency was inconclusive: 0.794 µM [activator, full curve].
With `CC(C(=O)Nc1cccc([N+](=O)[O-])c1)[n+]1ccccc1` (centres undefined) the Potency was active: 22.4 µM.
For `CCn1c(C)cc(/C=C2/NC(=O)N(Cc3ccccc3F)C2=O)c1C`, the Potency was inconclusive: 25.1 µM [inhibitor, partial curve].
With `CCOc1ccc2c(c1)n([O-])c1c([n+]2=O)CCCC1` the Potency was active: 20 µM.
`CN1CCc2nc3sc(C(=O)Nc4ccccc4C(F)(F)F)c(N)c3cc2C1` was tested, and the Potency was inconclusive: 15.8 µM [inhibitor, partial curve].
For `O=c1cc(O)c2sc(Nc3ccc(F)c(Cl)c3)nc2[nH]1`, the Potency was active: 28.2 µM.
For `COc1cc(S(=O)(=O)NCCN2CCOCC2)ccc1-n1cnnn1`, the “activity, negative = inhibition” value was inactive: 9.67%.
With `Cc1ccc(S(=O)(=O)N2C(=O)C(C)SC2=Nc2ccccc2)cc1` (centres undefined) the “activity, negative = inhibition” value was inactive: -4.51%.
For `COc1ccc(C(=O)/C=C/Nc2cc(C)on2)c(OC)c1`, the Potency was inconclusive: 8.91 µM [inhibitor, partial curve].
With `Cc1nc2cc(-c3ccccc3)sc2c(=O)n1N` the “activity, negative = inhibition” value was inactive: -13.4%.
For `CC(C)(C)Nc1oc(-c2ccccc2)nc1-c1ccccc1`, the “activity, negative = inhibition” value was inactive: -10.6%.
In the case of `C/C(=N/Nc1ccc(C)cc1)C1(C)N(O)C(C)(C)C(c2ccco2)=[N+]1[O-]` (centres undefined), the Potency is reported as inconclusive: 25.1 µM [inhibitor, partial curve, poor fit].
In the case of `O=C(c1ccco1)N1CCN(C(c2ccccn2)c2nnnn2C2CCCC2)CC1` (centres undefined), the Potency is reported as inconclusive: 15.8 µM [inhibitor, partial curve].
`CCOc1ccc(-n2nc3ccc(NC(=O)c4ccc(-c5cccc(Cl)c5)o4)cc3n2)cc1` was tested, and the Potency was inconclusive: 1 µM [inhibitor, full curve, poor fit].
`COc1ccccc1CNC(=O)c1oc2ccc3c(c2c1C)C(=O)CC(C)(C)O3` was tested, and the Potency was inconclusive: 22.4 µM [inhibitor, single point].
In the case of `Cc1ccsc1/C=N/Nc1ncc(Cl)cc1Cl`, the Potency is reported as inconclusive: 5.01 µM [inhibitor, partial curve].
With `Cn1c(N)c(N=Nc2ccc(S(N)(=O)=O)cc2)c(=O)n(C)c1=O` the Potency was inconclusive: 15.8 µM [inhibitor, partial curve].
`O=C(ON=C1CCN(S(=O)(=O)c2ccccc2)CC1)c1ccc(F)cc1` was tested, and the “activity, negative = inhibition” value was inactive: -0.939%.
For `Cc1c(C)n(C(=O)CN2CCC(C(N)=O)CC2)c2ccccc12`, the “activity, negative = inhibition” value was inactive: -0.939%.
In the case of `Cc1nc2ccccn2c1C(=O)N/N=C/c1ccc([N+](=O)[O-])cc1`, the Potency is reported as inconclusive: 39.8 µM [inhibitor, single point].
In the case of `O=C(COc1ccc(/C=N/NC(=O)c2ccccc2O)cc1)Nc1ccc([N+](=O)[O-])cc1`, the Potency is reported as inconclusive: 1.58 µM [inhibitor, full curve].
In the case of `Cc1ccc(-c2ccc(/C=C/C(=O)c3ccccc3)o2)cc1`, the Potency is reported as active: 12.6 µM.
For `O=C(NC(=S)Nc1ncc(Br)cc1Br)c1cncc(Br)c1`, the Potency was inconclusive: 28.2 µM [inhibitor, single point].
For `O=C(N/N=C/c1ccco1)c1cc(-c2cccc3ccccc23)n[nH]1`, the Potency was inconclusive: 3.16 µM [inhibitor, full curve, poor fit].
`Nc1ccc2nc(CCc3ccccc3)[nH]c2c1` was tested, and the Potency was inconclusive: 8.91 µM [inhibitor, single point].
For `CCN(CC)c1ccc(-c2nc(-c3ccco3)no2)cc1[N+](=O)[O-]`, the Potency was inconclusive: 44.7 µM [inhibitor, single point].
For `Cc1cc(=O)[nH]c(N/N=C/c2cccc([N+](=O)[O-])c2)n1`, the Potency was inconclusive: 35.5 µM [inhibitor, single point].
In the case of `COc1ccccc1CNc1nccn(-c2ccccc2)c1=O`, the “activity, negative = inhibition” value is reported as inactive: -8.57%.
With `O=C1C2=C(Nc3ccccc3SC2c2ccco2)c2ccccc21` (centres undefined) the Potency was active: 12.6 µM.
In the case of `O=C1C(c2ccnc3ccccc23)=C(O)c2ccccc21`, the Potency is reported as inconclusive: 1.26 µM [inhibitor, full curve].
With `O=C1C(=C(O)c2ccccc2)C(=O)c2ccccc21` the Potency was inconclusive: 17.8 µM [inhibitor, single point].
`COc1cccc(/C=N/NC(=O)c2cc3cc([N+](=O)[O-])ccc3s2)c1O` was tested, and the Potency was active: 2.24 µM.
In the case of `CCCCC1CCC(C(=O)N2CC(=O)Nc3ccc(Cl)cc3C2c2ccc(F)cc2)CC1` (centres undefined), the “activity, negative = inhibition” value is reported as inactive: -13.6%.
`Cc1ccc(Cl)cc1NC(=S)N/N=C/c1cccc2ccccc12` was tested, and the Potency was inconclusive: 3.55 µM [inhibitor, partial curve, poor fit].
In the case of `Cc1ccc(C)n1/N=C1/NC(=O)CS1`, the Potency is reported as inconclusive: 22.4 µM [inhibitor, partial curve].
For `COc1ccc(N2CC(NC(=O)COc3ccc4ccccc4c3)CC2=O)cc1OC` (centres undefined), the “activity, negative = inhibition” value was inactive: -14.7%.
With `Cc1ccc(Nc2nc3c(s2)CCC3)c(C)c1` the Potency was inconclusive: 39.8 µM [inhibitor, single point].
`COC(=O)c1c(NC(=O)c2nc3ccccc3s2)sc2c1CC(C)(C)NC2(C)C` was tested, and the Potency was inconclusive: 39.8 µM [inhibitor, single point].
With `Cc1ccc(C(=O)[C@@H]2[C@H]3C4COC(O4)C(=O)[C@@H]3[C@H]3C=Cc4ccccc4N32)cc1` (some centres undefined) the Potency was active: 22.4 µM.
`Cc1ccc(C=C2C(=O)c3ccccc3C2=O)s1` was tested, and the Potency was active: 14.1 µM.
